Values marked as one replicate rest on one cluster of the flow cell; about a third of the high ones do not repeat.
System: ATP
Assay: switch fluorescence ratio, 500 uM ATP over buffer (Cy3 cluster intensity, sum of 5 cycles each) (fold (ratio)); higher = stronger signal-on switching upon ATP binding; sequences stand for … in TCGTCGGCAGCGTCAGATGTGTATAAGAGACAGTTTTTTTTTTTTTTTTTTTTTTTTT…TC
Conditions: aptamer strand: ATP DNA aptamer (quencher-CACCTGGGGGAGTATTGCGGAGGAAGG + anchor), 100 nM annealed; ATP concentration: 500 uM; one replicate
In short: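 Clusters carrying Cy3-labelled switching strands on a modified Illumina MiSeq flow-cell were annealed to 100 nM quencher-labelled ATP aptamer and imaged in selection buffer. They were imaged again after 15 min with 500 uM ATP at 22 °C, over five buffer/ATP cycles with NaOH stripping and re-annealing in between. For each cluster, the fluorescence ratio is the summed Cy3 intensity of the target cycles divided by that of the buffer cycles, averaged per switch-domain sequence. Clusters outside 100-1000 RFU were left out.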
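Further: ATP exposure 15 min at 22 °C before imaging.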

Sequence	switch fluorescence ratio
AGGGTTGTAA	0.998
TAGGGATCAC	0.958
AATATAAATT	1.02
GACGAGAT	2.31
CTGCCATTGT	0.987
ACGGGTGTGT	1.04
TTGATTGCTG	1.02
TCGTGTGGGA	1.03
GGAGGGAGAT	2.05
TTGTGAATAG	0.983
ATAAAGTCGT	0.985
CAGCCCGTG	0.991
GCTCGGCCAT	1.24
ACAATTAGC	1.01
ATCCACGATC	1.25
GAACCACGGG	1.07
GATTTTATAG	0.943
GAGGTTCGCC	1.03
ACGAAGGAGG	0.988
CAAAGGTAGG	1.03
GGATAGACGT	1
CATTGGTCTG	0.975
TCAGACTGGG	1.02
CGTCGGTTGT	0.988
CCAGGGATGC	2.48
CTCGGGCAGC	1.13

Sequence	switch fluorescence ratio
TAACACTTAA	1.04
CCTCTTGATT	1.07
GGCTGCTCTA	0.981
TGGGGTTGT	0.964
TTATTCGGGT	0.957
AATGATTTTT	0.995
TGCCGCGGGT	0.961
GGGATATTAA	1.03
TTATTAACAG	1.01
CTTGCAGTAA	1.57
CAACGTAAGT	1.02
TAATTACTG	1.02
GCCCATGCTC	1.21
CGCCTGCCGA	0.995
GTAAAATT	1.01
TTCAGATGGC	0.992
TTGACTTACC	1.17
AGCTTGTCAT	0.97
CTTATAGTT	0.978
CCTGTCAGGT	0.996
GTGTCAGTAG	1.01
CAGACGGAC	1.49
AGGAGGGCTA	0.939
CTTTGCACTT	1.07
TAACTGTTGG	0.996
GAAACCGATC	3.16

Sequence	switch fluorescence ratio
TCCGGCAGTA	1.46
ACAGTGGATA	1.02
TTGCTCGGGT	1.02
GACATTCGGG	1
TGTCACGTCA	1.17
GGATGAGCTT	0.964
AGATGCTGG	0.993
ATGACCTTAA	1.05
TATATAATTA	1.02
AGATGTGTCC	1.03
GAACTTCATT	0.986
TTCCTACATA	1.08
AATTTTTACG	1.01
TGGTCCGC	1.96
CGTAACGTAT	1.03
GTAAGTAGGG	1.03
CCATTACAGT	0.992
TGTGGGATTA	0.971
GGGGGGTG	1.05
CTCTCTCAGA	1.03
GCGGGTGCT	0.99
TGGCAACAAG	1.01
ACTATTTGTC	0.999
CTTATAATGA	0.995
GGACGTTCTC	1.04
AGAACGCCGG	0.947

Sequence	switch fluorescence ratio
ATGCAGGGCA	0.95
CCGGCATAGG	1.2
GGATGTAGTT	1.06
AAAAGCGCCC	1.08
TAGATGTTGC	1
GCACGTAACG	1.11
CAGTTATAGG	1.05
CTTATTAACA	1.03
GTGTAAGCGA	1.01
TTGAGGTAC	1.07
TTCCTGAGTG	1.06
CCCAGGGGGC	1.6
TCCTGGTTAT	1.02
CGGCGTCTGG	0.996
ACGCTAGTTG	0.999
TACTTGGCAT	1.12
GGAGGTGGTG	0.967
AAGATATAAC	0.984
GTTGCGTCTC	0.963
GAATCTATGT	0.994
GGGCTGCATC	1.05
TTCCGTAGTA	2.62
GGGTCCTTAG	1.04
AACGGAGTGT	0.935
GGGCGCGGGC	1.01
AAATCCGCCC	1.81

Sequence	switch fluorescence ratio
GGGAATTGTA	1.02
CTTAGCTTCG	1.02
CTCACCGACG	1.41
CATTGTTTAA	0.991
CGTTTCGCGG	1.03
GGAGGTTCGT	0.997
CTAGGGGTCG	1.02
AACGTCATCC	1.2
TTGTCTCTAT	1.01
TGTCATCGGT	1.01
GTCGGCCGGG	1.02
TTGAGTTGTA	1.02
TTGGTTCCGG	1.01
AGATATACCT	1.28
AATGTCGGCA	1.02
AAACTGGCGT	1.04
TGGTTTGCGT	0.986
TATAGATCCA	1.01
CAAGAGCCTG	0.961
GGGTCGCCTA	0.992
GCCACCACTG	1.05
AGCGTAGAAG	0.992
GCCATTCAGA	1.02
GCTGGAGGAT	0.986
TTTCTCTAGT	1.02
AGTATCTTGT	1.02

Sequence	switch fluorescence ratio
CGGGATGAGC	1.08
CTACCTTGA	1.07
CAAAGTTTTT	1.07
CATGTGTATC	0.998
GAGGGTTATT	0.956
AAGAGGGAAT	1
ACGCTTAGGA	1.08
ATTCGGTGGT	1.02
TTGAGCCTCG	1.01
GGTTCGGTGG	1.08
GTTGAAAAGT	0.952
TCCCAGTTGG	1.11
TCATAGCATC	1.48
CATTATAAAC	0.973
CCTTCGCGGG	4.8
AGGATGCCGG	1.01
ATATTTATGG	0.995
GGAGGTACGA	0.971
AATGATTTAA	1.01
ATGGTCCTGT	0.953
CGGCGTACGT	1.04
TACTAGTCGG	0.918
CTAGGACCTC	1.04
GAGTTCTACA	1.03
TCTTTGCCAT	1.05
TACCCACGGT	1.24

Sequence	switch fluorescence ratio
AAAACGGGGA	0.958
ATTAGTAATC	1.1
TATGTCGAAA	1.01
TAGTTAAATT	0.949
GGTAGTGGCG	0.926
TTATTTTGCT	0.986
GATTTGGTTC	0.958
CAAGATTAAG	0.975
CATTAACAGT	0.983
GTGATTAGAT	0.971
ACAGGATTTT	0.993
ATAAGAGT	1.03
CCCCTCATCT	1.01
CAGTCTCGGC	0.984
AATATCTATT	0.995
AGGCGGTCTA	1.02
TCTATAGCGG	1.03
ACAGAGCCGC	1.08
TGCTGGGACG	1.14
CTCCTTTAAG	1.03
TCCAGGAAAA	0.984
TGTCAGGTCC	0.992
GCAAAGTCGT	1.03
AATCGACTCG	0.986
GCGGAGGCTT	1
TATAAAGCAA	1.46

Sequence	switch fluorescence ratio
AAGTCGTGGG	0.99
ATGTATGCGG	1.09
ATCTAGTTGC	1.04
TTGATTACCG	1.04
CAGTGAACGG	0.978
TGGACTGTGC	1.03
GATATGGTCA	0.988
CTGATAACTC	1
AACTTTTTCA	0.998
CTACAAGATA	1.05
CATTATGTCG	1.14
CGACTGGCGT	1.02
CAGACACTCC	1.19
CCGGGGTTCG	0.938
TCCAGTTTGG	0.983
TGCTTCCTAT	1.09
AGTTTGTTAT	1.01
TAGGTTACCG	1.01
AAGGTGGACG	0.962
